Our source for the growth values is the supplement of paper PMC10986608.

Each structure is given as a SMILES string. The list shows a part of the results. Most values come without repeats; read them as rough.

In the test the test system is Candida albicans DPL-15. Briefly: growth (OD600) after compound treatment (apparently relative to screen median) (relative growth (fraction; screen median 1.02)); DPL-15 is a caspofungin-resistant clinical isolate; higher = more fungal growth (less antifungal activity). As to conditions: 25 µM; RPMI 1640; 48 h; 30 °C.
In the case of `COc1ccc(C(=O)O)c(Oc2cccc(OC)c2OCc2ccccc2)c1`, the growth was determined as 1.08.
For `COC(=O)c1ccc(C2c3c(CC(C)C)n[nH]c3C(=O)N2c2ccc(OC)cc2)cc1` (centres undefined), the growth was 1.03.
Regarding `Cc1ccc(S(=O)(=O)OC[C@H]2O[C@H](C#Cc3ccc(C(C)(C)C)cc3)C=C[C@H]2O)cc1`, the growth amounted to 0.956.
On to `CCN(CC)CCCNC1=NC(c2ccccc2)C(C(=O)OC)=C(C)N1Cc1ccc(C(F)(F)F)cc1` (centres undefined), for which the growth was determined as 1.11.
Regarding `Cc1ccc(C2NC(=O)C3=C2C(CC(C)C)=NCCN3C)cc1` (centres undefined), the growth was determined as 1.07.
Take `COC(=O)[C@]1([C@H]2CCC(=O)O2)CC(=O)c2c(ccc(Cl)c2O)O1`: the growth turned out to be 0.928.
With `CCC(C)c1n[nH]c2c1C(c1ccc(F)cc1)N(c1ccc(OC)cc1)C2=O` (centres undefined), the growth stood at 1.02.
Next, `O=C1CCCC2=C1[C@@]1(O[C@H]3C=CC=CN23)C(=O)N(c2ccccc2)c2ccccc21`: 1.11; `CC(=O)c1cc(Br)c(O)cc1O`: 1.1.
The figure for `C[C@]12Cc3ccccc3[C@H]1CC1=N[C@@H](C3CCCCC3)O[C@@]13C[C@@H]2C(=O)N3C1CCN(Cc2ccccc2)CC1` is 0.838; for `COc1ccc([C@@]23Oc4cc(OC)cc(OC)c4[C@]2(O)C(=O)[C@H](C(=O)Nc2ccccn2)[C@H]3c2ccccc2)cc1` it is 0.955.
For `COc1ccc(N2C(=O)c3[nH]nc(CC(C)C)c3C2c2ccc(C)cc2)cc1` (centres undefined), the growth stood at 1.01.
With `CC1=C[C@@H](COc2ccc(Br)cc2)O[C@@]2(C1)C(=O)Nc1ccccc12`, the growth is 0.955.
The figure for `CC#CCCN1C(=O)N(C(C)=O)C(c2ccccc2)C(C(=O)OC)=C1C` (centres undefined) is 1.01; for `C=C(C)CC[C@@]12CCC(C)(C)[C@@](C(=O)c3ccccc3)(C(=O)C=C1OC)C2=O` it is 0.97; for `CCOC(=O)C1C=CC=C(OC)C=C1` (centres undefined) it is 1.21.
For the molecule `CC(C)CC1=NCCN(C)C2=C1C(c1ccccc1)N(c1ccccc1)C2=O` (centres undefined), the growth stood at 0.977.
Next, `C#CCN1C(=O)NC(c2ccccc2)C(C(=O)OC)=C1C` (centres undefined): 1.01; `CC(=O)C1=C2C=CCCN2C(=O)NC1c1ccc(C(F)(F)F)cc1` (centres undefined): 0.973.
For the molecule `COc1ccc(-c2c(O)c(=O)c3c(F)cccc3n2C)cc1`, the growth was found to be 0.731.
The figure for `CC(C)CC1=NCCN(C)C2=C1C(c1cccc(C(F)(F)F)c1)N(Cc1ccccc1)C2=O` (centres undefined) is 0.99; for `C=CC[C@]12C[C@@]3(O[C@H](C4CCCCC4)N=C3C[C@H](c3ccc(OC)cc3)[C@H]1C)N(Cc1cccnc1)C2=O` it is 0.812.
For `COC(=O)C1=C(C)N(CCc2cccs2)C(NCC2CCCCC2)=NC1c1ccccc1` (centres undefined), the growth was determined as 1.17.
Turning to `COc1cccc2c1C(=O)C[C@](COC(C)=O)(C1C=CC(=O)O1)O2` (some centres undefined), the growth was 1.28.
Take `Cc1ccc2c(=O)c3cccc(CC(=O)[O-])c3oc2c1C`: the growth was found to be 1.13.
Next, `CCN1C(NCCOC)=NC(c2ccc(Cl)cc2)C(C(=O)OC)=C1C` (centres undefined): 1.14.
`COc1cc2c(c(OC)c1OC)C1(CCCCC1)CC2NC(=O)C(F)(F)F` (centres undefined): the growth was found to be 1.17.
Take `COC(=O)[C@H]1[C@H](C(=O)OC)[C@@H](c2ccc(O)c(OC)c2)[C@@H]1c1ccc(O)c(OC)c1`: the growth turned out to be 1.05.
Regarding `COC(=O)c1c(C)c(C)c(O)c(C)c1O`, the growth came out at 1.24.
Take `C=CC[C@H]1C[C@]23C[C@H](CC=C)C(C)(C)[C@](CC=C)(C(=O)C(C(=O)c4ccccc4)=C2OC1(C)C)C3=O`: the growth was 1.
`COC(=O)COc1ccccc1[N+](=O)[O-]`: the growth turned out to be 1.11.
As for `C=CCCCN1C(=O)NC(c2ccccc2)C(C(=O)OC)=C1C` (centres undefined), the growth was 1.05.
Next, `COC(=O)C1=C(C)[C@]2(C)C[C@H]3[C@@]4(C)CC[C@H](O)C(C)(C)[C@@H]4CC[C@@]3(C)[C@](C)(C1=O)C2=O`: 0.865.
Next, `COC(=O)C(=Cc1cc(Br)c(OC)c(Br)c1)C(=O)OC`: 0.708; `COc1cc(O)c(C(=O)[C@@H]2CC=C(CCC=C(C)C)C[C@H]2c2ccccc2)c(OC)c1`: 0.954.
For the molecule `COc1cccc(C(=O)O)c1Nc1ccccc1C(=O)O`, the growth was determined as 1.1.
Consider `CC(C)(C)c1ccc(C#C[C@@H]2C=C[C@@H](O)[C@@H](CO)O2)cc1`, for which the growth worked out at 1.01.
For `COC(=O)C/C=C/[C@@H](C)[C@H](OC)c1ccccc1Br`, the growth is 0.997.
Regarding `COc1ccc([C@@]23Oc4cc(OC)cc(OC)c4[C@]2(O)c2nc(C4CCCCC4)[nH]c(=O)c2[C@H]3c2ccccc2)cc1`, the growth worked out at 1.12.
The figure for `COc1ccc(N2C(=O)c3[nH]nc(CC(C)C)c3C2c2ccncc2Cl)cc1` (centres undefined) is 1.09; for `COc1ccc2oc3ccccc3c(=O)c2c1` it is 1.09; for `COC(=O)C1=C(C)N(Cc2cccc(C(F)(F)F)c2)C(NCCN2CCOCC2)=NC1c1ccc(Cl)cc1` (centres undefined) it is 0.881.
For `CC1(C)/C=C\C=C\c2cccc(n2)C(=O)NCC2(CCCCC2)CC(=O)NC1`, the growth came to 1.14.
The figure for `COc1ccc(CCCc2ccccc2)cn1` is 1.05; for `CC(C)CCOS(=O)(=O)Nc1ccc(C(F)(F)F)cc1` it is 0.959; for `CC(C)CC1=NCC(C)(C)NC2=C1C(c1ccccc1)N(c1ccccc1)C2=O` (centres undefined) it is 1.02.
In the case of `COC(=O)c1c(O)c(C=O)c(O)c(C=O)c1O`, the growth was determined as 0.955.
In the case of `C=CC[C@@H]1C=C(C(=O)OC)N(C(=O)C(F)(F)F)[C@@H](c2ccccc2Br)[C@@H]1C`, the growth came out at 1.07.
In the case of `CCCCc1n[nH]c2c1C(c1ccc(F)cc1)N(c1ccc(OC)cc1)C2=O` (centres undefined), the growth stood at 1.35.
As to `COC(=O)Cc1nnn2c1CC(OC)c1cc(Br)ccc1-2` (centres undefined), the growth came to 1.03.
Next, `O=C(/C=C/c1ccccc1)Nc1ccc2c(=O)c(Cc3cccs3)coc2c1`: 1.13.
For the molecule `C#CCOc1ccccc1CN`, the growth came to 1.03.
Next, `COC(=O)C1=C(C)N(Cc2ccc(C(F)(F)F)cc2)C(NCC(C)C)=NC1c1ccccc1` (centres undefined): 0.924.
Turning to `Cc1ccc(C2NC(=O)C3=C2C(C(C)C)=NCCN3)cc1` (centres undefined), the growth was determined as 1.11.
For the molecule `CC(C)C[C@H]1NC(=O)C[C@H]2C[C@H](C)[C@H](c3ccccc3)N2C1=O`, the growth was found to be 0.982.
Consider `C#CCOC(CNC(=O)OC(C)(C)C)CNC(=O)OC(C)(C)C`, for which the growth worked out at 1.02.
Next, `CCOC(=O)COc1ccc(CC=C(C)C)c2c(=O)c3c(OC)cc(OC)cc3oc12`: 1.02; `CN(Cc1ccccc1)C(=O)c1c(O)cc(O)cc1CC(=O)C1CCCCC1`: 1.01.
The figure for `CC(C)C1=NCCN(C)C2=C1C(c1ccc(Br)cc1)N(Cc1ccccc1)C2=O` (centres undefined) is 0.951; for `Cc1cc(C)cc(-n2nc(CC(C)C)c3c2C(=O)NC3c2ccc(F)cc2)c1` (centres undefined) it is 1.07.
Regarding `C=CCN1C(=O)C2=C(C(C)=NCC(C)(C)N2)C1c1ccccc1` (centres undefined), the growth was 1.14.
Next, `C=CCN1C(=O)C2=C(C(c3ccccc3)=NCC(C)(C)N2)C1c1cccc(C(F)(F)F)c1` (centres undefined): 1.05.
`COC(=O)[C@@H](Cc1ccccc1)N[C@H](/C=C/c1ccccc1)[C@@H](O)Cc1ccccc1`: the growth stood at 1.09.
In the case of `CO[C@@H]1[C@H](O)CC[C@]2(O)CN(CCCN3CCCC3=O)[C@](C)([C@H](O)CC=C(C)C)[C@@H]12`, the growth was 1.04.
Take `O=C(c1c(O)cc(O)cc1Nc1ccnn1Cc1ccoc1)N1Cc2cn[nH]c2C1`: the growth came to 0.953.
Next, `CCC(=O)O[C@@H]1CCC(OC)=C2C(=O)c3c(ccc(I)c3O)O[C@]21C(=O)OC`: 0.984.
Turning to `COc1ccc([C@@H]2[C@@H](C(=O)NCc3ccccc3)[C@@H](C(=O)NCc3ccccc3)[C@@H]2c2ccc(OC)c(OC)c2)cc1OC`, the growth turned out to be 0.971.
Consider `CCC1(Cc2occc(=O)c2OS(C)(=O)=O)C(c2ccccc2)=Nc2ccccc21` (centres undefined), for which the growth was determined as 1.36.
For the molecule `c1csc([C@H]2c3cc4c(cc3O[C@H]3c5ccccc5C[C@@H]23)OCO4)c1`, the growth worked out at 1.13.
Regarding `O=C(Cc1ccc([N+](=O)[O-])cc1)N1CCc2ccccc2C1`, the growth worked out at 1.03.
On to `O=C(/C=C/c1ccccc1OC/C=C/c1ccccc1)c1ccccc1O`, for which the growth worked out at 1.08.
Turning to `C=CCN1C(=O)C2=C(C(C(C)C)=NCC(C)(C)N2)C1c1cccc(C(F)(F)F)c1` (centres undefined), the growth was determined as 1.04.
Turning to `COc1ccc(-c2ccc(O)c(C(C)=O)c2)cc1`, the growth came to 1.02.
In the case of `COCOc1cc(OC)cc(O)c1C(=O)/C=C/c1cccs1`, the growth was determined as 1.22.
Regarding `COc1ccccc1Cn1nc(CC(C)C)c2c1C(=O)NC2c1ccccc1` (centres undefined), the growth is 1.06.
Turning to `CC(=O)OC[C@H]1O[C@H](C#Cc2ccc(C)cc2)C=C[C@H]1OC(C)=O`, the growth worked out at 0.938.
For `COC(=O)C1=C[C@H]([C@H](C)[C@@H](OC)c2ccccc2Br)[C@H]2OCC[C@@H]12`, the growth turned out to be 1.06.
For `COC(=O)c1cc2c(c3c4cc(OC)ccc4n(S(=O)(=O)c4ccc(OC)cc4)c13)C(=O)N(Cc1ccc(C(F)(F)F)cc1)C2`, the growth came out at 1.1.
With `Nc1ccc(CCN2Cc3ccccc3C2)cc1`, the growth amounted to 1.06.
For `CO[C@@H]1[C@H](O)CC[C@]2(O)CN(c3cccc(F)c3)[C@@H](CC=C(C)C)[C@](C)(O)[C@@H]12`, the growth is 1.07.
Next, `CC(C)=CCc1cc(OCC(=O)NCC(=O)NCc2ccccc2)cc2oc3cccc(O)c3c(=O)c12`: 1.07.
As to `CC1=CC2=C[C@@H](O)C[C@@H](C)[C@]2(O)[C@@H]2CCC3(OCCO3)[C@@]2(O[Si](C)(C)C)C1`, the growth came to 1.25.
As for `COCCN1C(=S)NC(c2ccc(OC)cc2)C(C(=O)OC)=C1C` (centres undefined), the growth is 1.19.
For the molecule `CNc1cc(OC)cc(OC)c1C(=O)OCC(=O)c1cccc(N2CCOCC2)c1`, the growth worked out at 1.08.
